# In ChEMBL document CHEMBL4888484, “Replenishing the malaria drug discovery pipeline: Screening and hit evaluation of the MMV Hit Generation Library 1 (HGL1) against asexual blood stage Plasmodium falciparum ,using a nano luciferase reporter read-out” (2022):
# Among all 150,000 compounds or so, about 540 (0.36%) showed an effect of 50% or more. This is one part of the list.
# System: Plasmodium falciparum
# Assay: Primary screen in NF54 nanoGlo assay, in single point, at 2uM, 72h; a lower Z score goes with more inhibition
# Assay type: functional, Erythrocyte
# Details: timepoint 72 hour
SMILES,% Inhibition,Z score
O=C1NC2(CCN(Cc3ccccc3C(F)(F)F)CC2)Nc2cccc(Cl)c21,-12%,1.52
CCN(Cc1ccc(Cn2cccn2)cc1)C[C@H](O)c1cccc(O)c1,-5%,0.75
CCCNC(=O)c1ccc(NC(=O)c2nnc(C)s2)cc1,-21%,2.45
Cc1cc(C(=O)Nc2nnc(-c3ccc(F)cc3F)o2)c(C)o1,-8%,1.42
O=C(Nc1ccon1)c1ccc([C@@H]2CCCN2)s1,-6%,1.01
CC1(C)c2[nH]c3ccccc3c2C[C@H]2C(=O)N(CCN3CCOCC3)CC(=O)N21,2%,-0.39
O=S1(=O)CCN(c2nc3ccccc3o2)CC1,5%,-0.41
CN(c1ccn(C)n1)S(=O)(=O)CCCS(=O)(=O)N1CCCC1,-3%,0.33
O=C1CC[C@@H]2CN(c3ncnc4[nH]cnc34)CC[C@@H]2N1CCc1ccccc1,-5%,1.08
O=C(N[C@H]1CCOC[C@@H]1OCc1cscn1)c1cn[nH]c1,-5%,0.79
CCc1ccc(CN2CC[C@H]3CN(C(C)=O)C[C@@]3(CO)C2)o1,1%,-0.22
CC(C)Cc1nc(C#N)c(NCCc2ccccc2)o1,-20%,2.82
COc1ccc2cc(C(=O)N3CCN(c4ccccn4)CC3)ccc2c1,-2%,0.34
CCc1nc(CN2C(=O)COc3cc(S(=O)(=O)NC4CCC(C)CC4)c(Cl)cc32)no1 (centres undefined),-10%,1.14
Cn1cnnc1CCC(=O)N1CCN(c2ccc(Cl)c(Cl)c2)CC1,-10%,1.99
CCc1nc(CNC(=O)NCc2cc(Br)cnc2OC)cs1,-5%,0.51
CS(=O)(=O)N1CCO[C@@H](Cc2cccc3ccccc23)C1,-9%,1.69
O=C(c1ccc(C(=O)N2CCCc3ccccc32)s1)N1CCCc2ccccc21,21%,-2.34
Cc1cc(OCc2ccon2)c2ccccc2n1,-6%,0.56
COc1ccc2c(c1)C1(CC1)CN(C(=O)NC[C@@]1(C)CCC(=O)N1)C2,12%,-1.21
O=S(=O)(c1ccccc1)N1CC[C@@H]2CN(Cc3ccccc3)[C@@H]2C1,-11%,1.48

SMILES,% Inhibition,Z score
COc1ccccc1CNC(=O)C1=NN(c2ccc(C)cc2)c2ncccc2S1(=O)=O,3%,-0.37
Cc1noc(C)c1S(=O)(=O)Nc1cccc2c1CCCC2,-14%,1.61
COc1ccc(-c2cnn([C@@H](C)C(=O)Nc3c(C)cccc3C)c(=O)n2)cc1,-3%,0.34
Cc1c(Cl)cccc1S(=O)(=O)N1CC(N2CCc3sccc3C2)C1,-16%,2.55
CC(=O)c1cn(Cc2ccco2)c(=O)[nH]c1=O,-9%,1.57
Cc1nn(C)c(C)c1CCC(=O)N(C)[C@@H](C)c1ccco1,-8%,0.99
NCCn1cc(C(=O)NCc2cccnc2Oc2ccc(F)cc2F)nn1,-10%,1.58
CCC(=O)Nc1ccc2c(c1)cc(C(=O)Nc1ccccc1)n2Cc1ccccc1,-5%,0.61
Cc1[nH]c(-c2nnc(C3CCC3)o2)c(C)c1S(=O)(=O)N1CCCCCC1,-11%,1.41
COCCn1cnnc1CNC(=O)c1cnc(C(C)C)nc1,6%,-0.78
O=C1OCCN1Cc1cc(F)ccc1C(F)(F)F,2%,-0.25
CC(C)c1ccc(S(=O)(=O)Nc2cc(C(=O)O)ccc2N2CCC(N3CCCCC3)CC2)cc1,-16%,1.6
Cc1cc(C)cc(NC(=O)CCc2ccc3[nH]c(C(C)C)nc3c2)c1,4%,-0.57
Cc1ccccc1[C@H]1CCN(CCNc2nccc(-c3c(C)nn(C)c3C)n2)C1,-2%,0.23
CCc1cc(C(=O)NCc2cccnc2)nc2cc(-c3ccccn3)nn12,1%,-0.11
CCN(CC(=O)Nc1ccc(C(C)C)cc1)[C@@H](C)CS(C)(=O)=O,0%,0.06
COc1nc(C)cc(N(C)Cc2ncccn2)n1,-7%,0.86
Cc1ccc(CNC(=O)Cn2cnc3c(-c4ccncc4)nsc3c2=O)cc1,-9%,1.11
CC(C)(CN1CCOCC1)CN1CCc2[nH]cnc2[C@H]1c1cccc(C#N)c1,-1%,0.19
CC(NC(=O)N1CCCC(OC2CCC2)C1)c1ncc(Br)cn1 (centres undefined),-9%,1.34
CC1=NO[C@@](C)(CNC(=O)c2ccccc2Cl)C1,-9%,1.26

SMILES,% Inhibition,Z score
O=c1[nH]ccnc1N[C@H]1CCN(c2cccc(OC(F)(F)F)c2)C1,1%,-0.1
CCOC(=O)C1(Cc2ccc(Cl)cc2)CCN([C@@H](C)Cc2ccc(O)c(OC)c2)CC1,-8%,0.77
Cc1ccc(S(=O)(=O)n2cc(-c3cnn(S(=O)(=O)c4ccc(C)cc4)c3)cn2)cc1,-11%,2
COCC(=O)NC1CN(S(=O)(=O)c2ccc(C)o2)C1,-5%,0.54
COc1cc(OC)cc(C(=O)N2CCn3nccc3C2)c1,-15%,1.73
CCC(C)Oc1cccc(NC(c2cccnc2)c2ncc[nH]2)c1 (centres undefined),20%,-2.73
Cc1cc(N2CCC(COc3cc(C4CC4)ncn3)CC2)n2ncnc2n1,5%,-0.54
O=C(c1cccc(N2CCCC2=O)c1)N(Cc1cccc(OCc2ccc3c(c2)OCO3)c1)Cc1ccccn1,-12%,1.64
CCCN1CCC[C@H](CCNC(=O)c2ccc(C#N)nc2)C1,1%,-0.13
CCOc1ncccc1C(=O)N(C)[C@H]1CCN(C(C)C)C1,4%,-0.51
CN1CCC(N(C)C(=O)NC2CCCN(Cc3c(F)cccc3F)C2)C1=O (centres undefined),14%,-1.84
COc1cccc(-c2ccc(N3CCCN(C(=O)CN(CC4CC4)C(=O)c4ccccc4F)CC3)nn2)c1,-14%,1.84
O=C(c1cc(-c2ccc(F)cc2)n[nH]1)N1CCC(N2CCC[C@H](O)C2)CC1,0%,-0.03
CC(C)[C@@H]1N(C(=O)c2cc3n(n2)CCN(C)S3(=O)=O)CC1(C)C,0%,0.06
Cc1nc(NC(=O)c2ccc(Cl)c(-n3cnnn3)c2)sc1C,-1%,0.15
O=S(=O)(NCCc1nnc[nH]1)c1ccc(Cl)cc1,34%,-3.86
O=c1c2cncnc2ccn1Cc1noc2c1CCCC2,-3%,0.3
CC(C)Cc1ccc(C(=O)NCc2cc(=O)[nH]c(=O)[nH]2)s1,-4%,0.71
Cc1cc(C(=O)N2CC[C@H](OC(F)F)C2)c(C)n1C1CC1,-5%,0.64
Cc1nc(CC(C)C)cc(C(=O)N[C@H]2CCN(Cc3cccnc3)C[C@@H]2O)n1,-10%,1.3
Cc1nn(C)cc1[C@H](C)Nc1ccc(C(=O)Nc2ccccc2)nn1,-9%,1.66

SMILES,% Inhibition,Z score
CC(C)COc1ccccc1-c1nc(N(C)C)ns1,-1%,0.18
CCOC(=O)C1CCN(c2nc(-c3cccc(Cl)c3)c3c(N)n(-c4cccc(F)c4)nc3n2)CC1,-3%,0.38
O=C(NCc1ccc(Cl)cc1)c1nn[nH]c1Nc1cccc(F)c1,-1%,0.1
O=C(NCC1CCCCCC1)c1ccc(-c2ccc(F)c(F)c2)s1,-10%,1.18
Cc1cccn2c(CN3CCC[C@H](CC(N)=O)C3)cnc12,-4%,0.63
COC(=O)[C@H]1CC(=O)N(OCc2ccc3ccccc3c2)C12CCN(Cc1cc3ccccc3[nH]1)CC2,-11%,1.7
CCn1nccc1S(=O)(=O)N1CCC[C@H](CNC(=O)c2cccnc2)C1,-9%,1.55
CN(C)CCn1nccc1C(=O)N[C@H]1C[C@H](c2ccc(F)cc2F)C1,9%,-1.43
Cc1cc2c(N3CCC[C@H](N4CCNCC4=O)C3)nccn2n1,4%,-0.57
Cc1nn(C(C)(C)C)c(C)c1C(=O)N1CCC(C(=O)Nc2ccc3c(c2)OCO3)CC1,1%,-0.06
CC1(C)OCC[C@@H]1CNC(=O)NCc1ccc(C2CC2)cc1F,-7%,1.3
CS(=O)(=O)NC[C@H]1OC[C@@H](N(Cc2ccccc2)Cc2ccccc2)[C@@H]1O,-8%,1.36
CN(C)c1noc(C2CCN(C(=O)c3ccc4nccn4c3)CC2)n1,-9%,1.4
CCOc1ccc(NC(=O)Cn2nc3c(Oc4ccc(C)cc4)nc4ccccc4n3c2=O)cc1,-15%,2.09
c1ccc(-c2nc(-c3ccc(N4CCOCC4)cc3)no2)nc1,1%,-0.23
CC(C)c1cnc(Cn2nc3ccccn3c2=O)o1,-3%,0.59
c1ccc(COc2ccc([C@H]3C[C@@H](c4ccccc4)Nc4ncnn43)cc2)cc1,-4%,0.53
Cc1c(C#N)c(NC(=O)CN(C)C2CCN(c3ccccn3)CC2)n(Cc2ccco2)c1C,-1%,0.1
O=C(Cc1ccc(CO)cc1)NCc1cccnc1Oc1ccc(F)c(F)c1,10%,-1.39
